# Source: paper PMC4274898
# These are yes or no findings as the source states them, for the method shown. Some binding calls cover weakened binding; strength is not graded here.
# T1: ARF5 (Arabidopsis thaliana) (UniProt P93024)
# T1 sequence: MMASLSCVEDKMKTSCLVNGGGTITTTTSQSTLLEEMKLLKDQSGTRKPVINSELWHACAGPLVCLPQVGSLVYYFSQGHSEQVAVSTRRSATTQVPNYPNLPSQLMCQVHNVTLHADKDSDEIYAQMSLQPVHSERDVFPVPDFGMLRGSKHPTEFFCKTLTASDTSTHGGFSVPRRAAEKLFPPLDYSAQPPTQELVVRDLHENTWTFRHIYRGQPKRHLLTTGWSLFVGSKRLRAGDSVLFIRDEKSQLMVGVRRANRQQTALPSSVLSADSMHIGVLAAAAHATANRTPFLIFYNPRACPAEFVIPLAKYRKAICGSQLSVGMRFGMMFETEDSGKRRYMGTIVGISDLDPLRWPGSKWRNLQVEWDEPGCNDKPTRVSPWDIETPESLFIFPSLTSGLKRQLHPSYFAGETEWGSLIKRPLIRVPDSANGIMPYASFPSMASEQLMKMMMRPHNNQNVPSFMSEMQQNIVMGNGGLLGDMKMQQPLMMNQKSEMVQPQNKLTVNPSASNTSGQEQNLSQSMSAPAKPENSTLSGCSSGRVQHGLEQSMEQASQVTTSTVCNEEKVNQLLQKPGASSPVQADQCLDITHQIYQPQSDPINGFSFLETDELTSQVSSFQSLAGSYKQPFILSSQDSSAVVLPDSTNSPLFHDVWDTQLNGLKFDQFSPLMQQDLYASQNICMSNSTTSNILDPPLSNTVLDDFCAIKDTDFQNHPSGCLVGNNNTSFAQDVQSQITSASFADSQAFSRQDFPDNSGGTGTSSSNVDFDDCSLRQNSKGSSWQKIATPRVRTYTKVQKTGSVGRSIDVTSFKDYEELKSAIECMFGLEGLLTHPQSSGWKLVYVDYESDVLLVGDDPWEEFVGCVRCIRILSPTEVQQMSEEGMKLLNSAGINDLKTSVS
# T2: ARF19 (Arabidopsis thaliana) (UniProt Q8RYC8)
# T2 sequence: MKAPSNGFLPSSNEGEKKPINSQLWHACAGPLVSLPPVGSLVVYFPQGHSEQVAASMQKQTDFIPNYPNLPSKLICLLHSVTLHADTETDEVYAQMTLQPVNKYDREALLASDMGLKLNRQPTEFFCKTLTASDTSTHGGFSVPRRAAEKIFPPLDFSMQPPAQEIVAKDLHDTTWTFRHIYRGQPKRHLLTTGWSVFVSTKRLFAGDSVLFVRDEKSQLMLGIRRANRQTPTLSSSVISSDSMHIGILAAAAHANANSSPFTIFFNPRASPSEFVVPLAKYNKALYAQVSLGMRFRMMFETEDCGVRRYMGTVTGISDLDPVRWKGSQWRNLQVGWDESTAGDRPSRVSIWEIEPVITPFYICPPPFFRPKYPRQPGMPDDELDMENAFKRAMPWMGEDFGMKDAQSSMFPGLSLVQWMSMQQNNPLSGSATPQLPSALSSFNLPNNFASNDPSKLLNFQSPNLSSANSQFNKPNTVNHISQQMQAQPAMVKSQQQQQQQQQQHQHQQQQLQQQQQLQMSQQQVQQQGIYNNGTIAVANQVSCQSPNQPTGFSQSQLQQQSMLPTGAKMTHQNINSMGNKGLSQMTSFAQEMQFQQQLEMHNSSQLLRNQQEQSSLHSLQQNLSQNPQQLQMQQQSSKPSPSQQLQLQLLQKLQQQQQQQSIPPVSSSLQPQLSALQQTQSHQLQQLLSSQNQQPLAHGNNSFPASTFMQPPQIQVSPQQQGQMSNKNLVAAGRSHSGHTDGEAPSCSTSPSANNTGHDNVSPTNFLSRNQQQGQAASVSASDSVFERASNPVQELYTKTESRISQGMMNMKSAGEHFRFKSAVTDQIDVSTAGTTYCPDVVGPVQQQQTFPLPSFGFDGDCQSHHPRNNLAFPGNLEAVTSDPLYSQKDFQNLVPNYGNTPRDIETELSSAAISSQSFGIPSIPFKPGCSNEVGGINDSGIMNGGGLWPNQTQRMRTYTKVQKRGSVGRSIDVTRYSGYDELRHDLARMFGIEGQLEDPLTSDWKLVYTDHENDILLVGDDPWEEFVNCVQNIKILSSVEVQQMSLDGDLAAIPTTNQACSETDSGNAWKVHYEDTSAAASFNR
# T3: ARF11 (Arabidopsis thaliana) (UniProt Q9ZPY6)
# T3 sequence: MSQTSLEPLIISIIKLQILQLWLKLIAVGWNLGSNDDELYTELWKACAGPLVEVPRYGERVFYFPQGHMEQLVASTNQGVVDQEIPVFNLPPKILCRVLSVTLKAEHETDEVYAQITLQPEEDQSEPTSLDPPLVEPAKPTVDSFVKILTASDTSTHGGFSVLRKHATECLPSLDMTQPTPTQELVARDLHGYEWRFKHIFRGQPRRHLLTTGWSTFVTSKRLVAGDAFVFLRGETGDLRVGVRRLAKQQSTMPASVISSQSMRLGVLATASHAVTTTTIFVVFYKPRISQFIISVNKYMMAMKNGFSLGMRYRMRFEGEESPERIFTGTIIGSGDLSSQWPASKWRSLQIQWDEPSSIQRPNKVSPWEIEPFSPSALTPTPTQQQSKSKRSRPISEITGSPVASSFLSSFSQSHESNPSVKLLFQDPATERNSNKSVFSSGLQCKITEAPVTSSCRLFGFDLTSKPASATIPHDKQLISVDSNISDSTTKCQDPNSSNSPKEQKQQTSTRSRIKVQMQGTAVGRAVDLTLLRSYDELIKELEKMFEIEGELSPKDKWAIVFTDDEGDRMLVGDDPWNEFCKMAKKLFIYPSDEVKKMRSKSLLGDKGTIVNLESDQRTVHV
# B1: Aux/IAA5 (protein, UniProt P33078 1-163)
# chain: MANESNNLGLEITELRLGLPGDIVVSGESISGKKRASPEVEIDLKCEPAKKSQVVGWPPVCSYRRKNSLERTKSSYVKVSVDGAAFLRKIDLEMYKCYQDLASALQILFGCYINFDDTLKESECVPIYEDKDGDWMLAGDVPWEMFLGSCKRLRIMKRSCNRG
# B2: Aux/IAA34 (protein, UniProt Q9C5X0 1-185)
# chain: MYCSDPPHPLHLVASDKQQKDHKLILSWKKPTMDSDPLGVFPNSPKYHPYYSQTTEFGGVIDLGLSLRTIQHEIYHSSGQRYCSNEGYRRKWGYVKVTMDGLVVGRKVCVLDHGSYSTLAHQLEDMFGMQSVSGLRLFQMESEFCLVYRDEEGLWRNAGDVPWNEFIESVERLRITRRNDAVLPF
# B3: Aux/IAA3 (protein, UniProt Q38822 1-189)
# chain: MDEFVNLKETELRLGLPGTDNVCEAKERVSCCNNNNKRVLSTDTEKEIESSSRKTETSPPRKAQIVGWPPVRSYRKNNIQSKKNESEHEGQGIYVKVSMDGAPYLRKIDLSCYKGYSELLKALEVMFKFSVGEYFERDGYKGSDFVPTYEDKDGDWMLIGDVPWEMFICTCKRLRIMKGSEAKGLGCGV
# B4: Aux/IAA29 (protein, UniProt Q93WC4 1-251)
# chain: MELDLGLSLSPHKSSKLGFNFDLNKHCAIEGAASCLGTEKLRFEATFGLGNVEENCYMPKQRLFALNGQPNEEDEDPLESESSIVYDDEEENSEVVGWPPVKTCMIKYGSYHHRHIRNHHHCPYHHRGRRITAMNNNISNPTTATVGSSSSSSISSRSSMYVKVKMDGVAIARKVDIKLFNSYESLTNSLITMFTEYEDCDREDTNYTFTFQGKEGDWLLRGDVTWKIFAESVHRISIIRDRPCAYTRCLF
# B5: Aux/IAA31 (protein, UniProt Q8H174 1-158)
# chain: MEVSNSCSSFSSSSVDSTKPSPSESSVNLSLSLTFPSTSPQREARQDWPPIKSRLRDTLKGRRLLRRGDDTSLFVKVYMEGVPIGRKLDLCVFSGYESLLENLSHMFDTSIICGNRDRKHHVLTYEDKDGDWMMVGDIPWDMFLETVRRLKITRPERY
# B6: Aux/IAA4 (protein, UniProt P33077 1-186)
# chain: MEKVDVYDELVNLKATELRLGLPGTEETVSCGKSNKRVLPEATEKEIESTGKTETASPPKAQIVGWPPVRSYRKNNVQTKKSESEGQGNYVKVSMDGAPYLRKIDLTMYKQYPELMKSLENMFKFSVGEYFEREGYKGSDFVPTYEDKDGDWMLVGDVPWEMFVSSCKRLRIMKGSEVKGLGCGGL
# B7: Aux/IAA33 (protein, UniProt Q9FKM7 1-171)
# chain: MNSFEPQSQDSLQRRFHQDNSTTQQPRDTTTPFIPKPASKNHNNSNSSSGAAGRSFQGFGLNVEDDLVSSVVPPVTVVLEGRSICQRISLDKHGSYQSLASALRQMFVDGADSTDDLDLSNAIPGHLIAYEDMENDLLLAGDLTWKDFVRVAKRIRILPVKGNTRQVKRNE
# B8: Aux/IAA30 (protein, UniProt Q9M1R4 1-172)
# chain: MGRGRSSSSSSIESSCKSNPFGVSSSNTRNLSTDLRLGLSFGSSSGQYYNGGDNHEYDGVGAAEEMMIMEEEEQNECNSVGSFYVKVNMEGVPIGRKIDLLSLNGYHDLITTLDYMFNASILWAEEEDMCSEKSHVLTYADKEGDWMMVGDVPWEMFLSSVRRLKISRAYHY
# Biological target: T1, ARF5 (Arabidopsis thaliana)
# Assay: two-hybrid; S. cerevisiae AH109 co-transformed with pGBKT7-ARF (bait) and pGADT7-Aux/IAA (prey); growth on SD/-Ade-His-Leu-Trp against SD/-Leu/-Trp; at least 10 independent colonies; serial dilutions for strength
row,binding,Binder
1,binds,B1
2,binds,B2
3,binds,B3
4,binds,B4
5,binds,B5
6,binds,B6
7,binds,B7
8,binds,B8

# Biological target: T2, ARF19 (Arabidopsis thaliana)
# Assay: as above
row,binding,Binder
1,binds,B1
2,binds weakly,B2
3,binds,B3
4,binds,B4
5,binds,B5
6,binds,B6
7,binds,B7
8,binds,B8

# Biological target: T3, ARF11 (Arabidopsis thaliana)
# Assay: as above
row,binding,Binder
1,no binding,B1
2,no binding,B2
3,no binding,B3
4,no binding,B4
5,no binding,B5
6,no binding,B6
7,no binding,B7
8,no binding,B8
